The campaign covered roughly 43,000 compounds. About 200 (0.47%) were called active. Inconclusive results (about 12%) are left out. Calls come from the whole dose curve; as a rule, active = well fitted cell-killing curve with a large enough effect; inconclusive = small, poorly fitted or top-dose-only effect, or effect the other way; inactive = flat fitted curve, though single readings scatter. The list shows a part of the results.
Assay: Cell viability qHTS assay in S16 Pmp22-F2sN cells; note: nearly all actives have a fitted effect of over 65% in size
Conditions: S16 Pmp22-F2sN Schwann cells (luciferase reporters placed in the Pmp22 gene) viability, CellTiter-Glo, 24 h; series mostly up to 57.5 µM; activity change, negative = cytotoxicity: at the top concentration
Procedure, shortened: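 CellTiter-Glo counter-screen, qHTS, 1536-well. Cells: S16(c9) Pmp22-F2sN, 500-1,000/well in DMEM + 10% FBS. Cpd 23 nL pin transfer, 24 h, 37C/5% CO2. Read: luminescence, CCD imager.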
% is set by controls: 0 for no effect and ±100 for the full control effect.

| Compound | activity change, negative = cytotoxicity |
| --- | --- |
| CCc1c(C)sc2c1CCN(Cc1ccccc1C#N)C2c1ccccc1 (stereo unspecified) | inactive: -29.7% |
| CCOc1ccc(CNC(=O)C2CCN(c3nc4ccccc4nc3C(F)(F)F)CC2)cc1OC | inactive: 2.84% |
| CC1CCN(c2oc(-c3cccs3)nc2S(=O)(=O)c2ccccc2)CC1 | inactive: 0.432% |
| COc1ccc(-n2nc3ccc(NC(=O)c4cccc(OCCC(C)C)c4)cc3n2)cc1 | inactive: 19% |
| Cc1nn(C)c2c1c(-c1ccccc1)cc(=O)n2Cc1ccc(F)cc1 | inactive: 16.7% |
| Cc1ccc2c(c1)cc1c(=O)n(Cc3ccc(Cl)cc3)nc(C)n12 | inactive: 10.3% |
| COc1cccc(-c2cc(C(=O)Nc3ccc(Br)c(C)c3)[nH]n2)c1 | inactive: -1.51% |
| COc1ccc(-n2c(=O)c3ccc(C(=O)NCc4ccc(C)cc4)cc3n(Cc3cccc(Cl)c3)c2=O)cc1 | inactive: -8.92% |
| CC1CCCCN1S(=O)(=O)c1cc2c(=O)nc3ccccn3c2cc1Cl (stereo unspecified) | inactive: -0.823% |
| CCOc1ccc(C2C(C(=O)Nc3ccccc3OC)=C(C)Nc3c(C(=O)Nc4cccc(C)c4)cnn32)cc1 (stereo unspecified) | inactive: -1.01% |
| O=C1CC(c2nnc(Cc3cccc(Cl)c3)o2)CN1c1ccccc1 (stereo unspecified) | inactive: -11.2% |
| Cc1cccc(C)c1NS(=O)(=O)c1ccc2c(c1)[C@H]1C=CC[C@H]1[C@@H](c1ccc(Cl)cc1)N2 | inactive: -14.1% |
| CCn1c(CC2C(=O)Nc3ccccc32)nc2ccccc2c1=O (stereo unspecified) | inactive: 4.25% |
| COc1ccc(CN(Cc2ccco2)C(=O)c2ccccc2F)cc1 | inactive: -0.0399% |
| Cc1ccccc1Cn1c2ccccc2c2cnn(CC(=O)NCCCc3ccccc3)c(=O)c21 | inactive: 17.5% |
| COc1cccc(Cc2nc3ccccc3nc2SCC(=O)N2CCN(c3ccccc3)CC2)c1 | inactive: -1.06% |
| O=C(Cn1c(-c2cccs2)cc2cc(F)ccc21)N1CCN(c2cccc(Cl)c2)CC1 | inactive: -0.659% |
| O=C(Nc1cc(-c2nc3ccccc3o2)ccc1Cl)c1ccc(Br)o1 | inactive: 9.07% |
| Cc1c(C(=O)NCc2ccccc2)sc2nc[nH]c(=O)c12 | inactive: -0.36% |
| Cc1ccc(CCNc2nc3c(S(=O)(=O)c4ccccc4)nnn3c3ccsc23)cc1 | inactive: 4.46% |
| COc1cc(-c2noc(-c3ccc(N(C)C)c([N+](=O)[O-])c3)n2)cc(OC)c1OC | inactive: -9.55% |

| Compound | activity change, negative = cytotoxicity |
| --- | --- |
| CCOc1ccc(Nc2sc(C(=O)c3ccc4c(c3)OCO4)c(N)c2S(=O)(=O)c2ccc(C)cc2)cc1 | inactive: -0.476% |
| Cn1nc(C(=O)N2CCN(c3ccc(Cl)cc3)CC2)c2c1-c1ccccc1S(=O)(=O)C2 | inactive: -20.9% |
| COc1ccc(-c2cc(C(F)(F)F)nc(NCc3ccc(Cl)cc3)n2)cc1 | inactive: 0.209% |
| COc1ccccc1CNC(=O)CSc1cc(=O)n(C)c2ccccc12 | inactive: -28.6% |
| CC(=O)Nc1ccc(S(=O)(=O)NC2(C(F)(F)F)NC(=O)N(c3ccccc3F)C2=O)cc1 (stereo unspecified) | inactive: 1.8% |
| CCC1CN(C(=O)Nc2cccc(OC)c2)c2ccccc2O1 (stereo unspecified) | inactive: -4.1% |
| COc1ccc2c(c1)c1c(c(=O)n(-c3ccc(F)c(Cl)c3)c(=O)n1CC(N)=O)n2C | inactive: 2.81% |
| CCOc1ccc(-c2c(C)nn3c(C)c(C(=O)NCCc4ccccc4)cnc23)cc1OCC | inactive: 1.13% |
| COc1cccc2c1cc1c(=O)n(CC(=O)O)nc(C)n12 | inactive: 6.22% |
| Cc1ccc(-c2cn3c(n2)sc2cc(C(=O)NC4CCCc5ccccc54)ccc23)cc1 (stereo unspecified) | inactive: 2.27% |
| CCOCCCNC(=O)C1CCN(c2cc(C)nc3c(-c4ccc(Cl)cc4)c(C)nn23)CC1 | inactive: 0.173% |
| CCc1ccc(NCc2cc3cc4c(cc3n(CC(=O)Nc3ccccc3Cl)c2=O)OCO4)cc1 | inactive: -24.4% |
| CCOc1ccc(-n2c(=O)c3c4c(sc3n(Cc3cccc(C)c3)c2=O)CCCC4)cc1 | inactive: 7.65% |
| Clc1ccc2nc(Nc3ccccc3Cl)nc(-c3ccccc3)c2c1 | inactive: 2.9% |
| COc1ccc(NC(=O)Cn2c(=O)n(CC(=O)NCCc3ccccc3)c(=O)c3ccccc32)cc1 | inactive: -4.73% |
| COc1ccc(CNC(=O)c2cc3c(-c4ccccc4F)nn(C)c3s2)cc1 | inactive: -13.3% |
| COc1ccc(OC)c(NC(=O)c2c(NCc3ccc(OC)c(OC)c3)sc3c2CCC3)c1 | inactive: 16.1% |
| O=C(Nc1ccc(Br)cc1F)C(NS(=O)(=O)c1cccc2nsnc12)c1ccccc1 (stereo unspecified) | inactive: 1.17% |
| Cc1ccc(NC(=O)c2cc3c(-c4ccccc4)nn(-c4ccccc4)c3s2)cc1 | inactive: 4.9% |
| CCN(C(=O)CSc1nnc(-c2cc3occc3n2C)n1-c1ccccc1C)c1cccc(C)c1 | inactive: 2.48% |
| CCOc1ccccc1NC(=O)Cn1c(=O)n(-c2ccccc2)c(=O)c2c1c1cc(C)ccc1n2C | inactive: 5.17% |

| Compound | activity change, negative = cytotoxicity |
| --- | --- |
| Cc1nn(CCCC(=O)Nc2cc(C(F)(F)F)ccc2Cl)c(=O)c2c1sc1ccccc12 | inactive: 1.87% |
| CCc1nn(CC(=O)N(CC)Cc2ccccc2)c(=O)c2cc3occc3n12 | inactive: 6.29% |
| CCN(CC)C(=O)c1cnn(-c2ccc(F)cc2)c1-n1cccc1 | inactive: 2.28% |
| CCNC(=O)c1c(C)oc2ncn(C)c(=O)c12 | inactive: -6.15% |
| COc1ccc(-c2c(C#N)c(SCC(=O)Nc3ccc(Br)cc3)nc(C)c2C(=O)Nc2ccccc2)cc1 | inactive: -1.68% |
| COC(=O)c1ccccc1NC(=O)c1cc2c(s1)-c1ccccc1OC2 | inactive: -15.2% |
| Cc1cc(C)c(S(=O)(=O)NCCc2cc3ccc(C)cc3[nH]c2=O)c(C)c1 | inactive: 15.4% |
| CC1=C(C(=O)N2CCCCC2)C(c2cccc(Cl)c2)n2c(nc3ccccc32)N1 (stereo unspecified) | inactive: 15.6% |
| O=C(CSc1nc(-c2ccccc2)c2ccccc2n1)Nc1ccc(F)cc1 | inactive: 2.61% |
| COc1ccc(NC(=O)COc2ccc(S(=O)(=O)NC3CCCCC3)cc2)c(OC)c1 | inactive: 24.9% |
| O=C(CCCc1nc(-c2ccccc2)no1)Nc1cc(C(F)(F)F)cc(C(F)(F)F)c1 | inactive: 4.9% |
| Cc1ccc(CNC(=O)Cn2cc(S(=O)(=O)Cc3cccc(Cl)c3)c3ccccc32)cc1 | inactive: 0.622% |
| COc1ccc(-c2nc3nc(C)cc(Nc4cccc(C(F)(F)F)c4)n3n2)cc1 | inactive: 4.9% |
| CCOc1ccc(NC(=O)c2cc(S(=O)(=O)N3CCCC3)c[nH]2)cc1 | inactive: -3.58% |
| CC1=C(C(=O)Nc2ccccc2C)C(c2ccco2)n2ncnc2N1 (stereo unspecified) | inactive: 14.8% |
| Cc1sc(-n2cccc2)c(C(C)NC(=O)Nc2ccccc2Cl)c1C (stereo unspecified) | inactive: -10% |
| Cc1noc(Cn2c(=O)c3ccccc3n(CC(=O)Nc3ccc(F)cc3F)c2=O)n1 | inactive: -17.8% |
| O=C(Nc1nnc(S(=O)(=O)N2CCCCC2)s1)c1ccc(F)cc1 | inactive: -22% |
| Cc1cc(C)c(Cn2c3ccccc3c3cnn(CC(=O)NCc4ccc(Cl)cc4)c(=O)c32)c(C)c1 | inactive: -1.86% |

Source: PubChem BioAssay AID1508642 (National Center for Advancing Translational Sciences (NCATS), 2021)
